Measured values as given in PubChem BioAssay (NCATS).
Several values for one entry are separate records, joined by “and”; a condition that tells them apart may be missing. Equal entries are not always repeated. The shares of active, inactive and inconclusive entries below differ from those in the screen. For some assays here: Potencies beside an inconclusive call are fits to weak or partial responses and may not hold up. Activity calls are given as the source filed them. Calls come from the whole dose curve; as a rule, active = well fitted curve in the direction sought with a large enough effect; inconclusive = small, poorly fitted or top-dose-only effect, or another doubt; inactive = no such curve, though single readings can be large; an effect the other way counts as inactive or inconclusive.

Tests used:
[1] = qHTS of pediatric cancer cell lines to identify multiple opportunities for drug repurposing: Primary screen for NB1643 cells (AID 1347099); note: nearly all actives have a fitted effect of over 50% in size; note: potency is the fitted concentration of half-maximal effect
Procedure, shortened: (§1)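 Cells seeded at 500-1,000 cells/well in growth media, rested 5 hours at 37 degrees C, 5% CO2, then dosed; MIPE compounds at 11-point (from 0.78 nM) and NPC at 8-point (from 0.59 nM) final concentrations. Viability by CellTiter-Glo luminescence after 48 hours.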

[2] = qHTS of pediatric cancer cell lines to identify multiple opportunities for drug repurposing: Primary screen for LAN-5 cells (AID 1347100); details: LAN-5 neuroblastoma viability, CellTiter-Glo luminescence, 48 h; activity change, negative = cytotoxic: at 46 µM (top of the series); note: potency is the fitted concentration of half-maximal effect
Procedure, shortened: (§2)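 Viability after 48 h compound treatment at 37C, 500-1,000 cells/well, read as ATP luminescence with CellTiter-Glo. Primary screens used 11-point (MIPE, 0.78 nM-46 µM) or 8-point (NPC, 0.59 nM-46 µM) final concentrations; follow-up screens used 11-point dilutions.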

[3] = qHTS of pediatric cancer cell lines to identify multiple opportunities for drug repurposing: Primary screen for Rh18 cells (AID 1347102); details: Rh18 rhabdomyosarcoma viability, CellTiter-Glo luminescence, 48 h; activity change, negative = cytotoxic: at 46 µM (top of the series); note: nearly all actives have a fitted effect of over 65% in size; note: potency is the fitted concentration of half-maximal effect
Procedure, shortened: as §2

[4] = qHTS of pediatric cancer cell lines to identify multiple opportunities for drug repurposing: Primary screen for RD cells (AID 1347104); note: nearly all actives have a fitted effect of over 55% in size; note: potency is the fitted concentration of half-maximal effect
Procedure, shortened: as §1

[5] = qHTS of pediatric cancer cell lines to identify multiple opportunities for drug repurposing: Primary screen for OHS-50 cells (AID 1347103); note: nearly all actives have a fitted effect of over 40% in size; note: potency is the fitted concentration of half-maximal effect
Procedure, shortened: (§3)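 Cells (500-1,000/well) rested 5 h, then received compounds for 48 h; metabolically active cells were measured by CellTiter-Glo luminescence. Final concentrations spanned up to 46 µM (MIPE, 11-point) or 0.59 nM-46 µM (NPC, 8-point) in primary screens, 11-point in follow-ups.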

[6] = qHTS of pediatric cancer cell lines to identify multiple opportunities for drug repurposing: Primary screen for MG 63 (6-TG R) cells (AID 1347105); details: MG 63 (6-TG R) viability, CellTiter-Glo, 48 h; activity change, negative = cytotoxic: at 46 µM (top of the series); note: potency is the fitted concentration of half-maximal effect; nearly all actives have a fitted effect of over 50% in size
Procedure, shortened: as §1

[7] = qHTS of pediatric cancer cell lines to identify multiple opportunities for drug repurposing: Primary screen for control Hh wild type fibroblast cells (AID 1347106); note: potency is the fitted concentration of half-maximal effect; nearly all actives have a fitted effect of over 55% in size
Procedure, shortened: as §2

[8] = qHTS of pediatric cancer cell lines to identify multiple opportunities for drug repurposing: Primary screen for BT-12 cells (AID 1347101); note: potency is the fitted concentration of half-maximal effect; nearly all actives have a fitted effect of over 25% in size
Procedure, shortened: as §3

[9] = qHTS of pediatric cancer cell lines to identify multiple opportunities for drug repurposing: Primary screen for SK-N-SH cells (AID 1347098); details: SK-N-SH viability, CellTiter-Glo luminescence, 48 h; activity change, negative = cytotoxic: at 57 µM (top of the series);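 note: DMSO served as neutral control and bortezomib at 2.3 µM as positive control; nearly all actives have a fitted effect of over 65% in size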
Procedure, shortened: as §3
Tags give direction and shape of the fitted curve.

## CC/C(=C(\c1ccccc1)c1ccc(OCCN(C)C)cc1)c1ccccc1
[1]
  Potency: inconclusive: 29.9 µM [cytotoxic, single point]
[2]
  Potency: inconclusive: 29.9 µM [cytotoxic, single point]
[3]
  Potency: inconclusive: 16.8 µM [cytotoxic, single point]
[4]
  Potency: inconclusive: 29.9 µM [cytotoxic, single point]

## CC(=O)OCC(=O)[C@@]1(OC(C)=O)[C@@H](C)C[C@H]2[C@@H]3C[C@H](F)C4=CC(=O)C=C[C@]4(C)[C@@]3(F)[C@@H](O)C[C@@]21C
[1]
  Potency: inconclusive: 29.9 µM [cytotoxic, single point]
[2]
  Potency: inactive
[3]
  Potency: inactive
[5]
  Potency: inactive

## CC(=O)[C@]1(O)Cc2c(O)c3c(c(O)c2[C@@H](O[C@H]2C[C@H](N)[C@H](O)[C@H](C)O2)C1)C(=O)c1ccccc1C3=O
[1]
  Potency: active: 0.376 µM
[2]
  Potency: inconclusive: 0.133 µM [cytotoxic, full curve, poor fit]
[4]
  Potency: active: 1.06 µM
[6]
  Potency: active: 2.11 µM
[7]
  Potency: inconclusive: 0.168 µM [cytotoxic, full curve]

## C[C@@]12C(=O)OC(=O)[C@]1(C)C1CCC2O1
[1]
  Potency: active: 1.19 µM
[2]
  Potency: active: 2.66 µM
[8]
  Potency: active: 6.92 µM
[3]
  Potency: active: 1.88 µM
[7]
  Potency: inconclusive: 1.5 µM [cytotoxic, full curve]

## CO[C@@H]1[C@@H](O)[C@H](O)[C@@H](n2c3c(Cl)cccc3c3c4c(c5c6cccc(Cl)c6[nH]c5c32)C(=O)NC4=O)O[C@@H]1CO
[1]
  Potency: active: 0.418 µM
[8]
  Potency: active: 1.37 µM
[3]
  Potency: active: 2.09 µM

## O=C(Nc1cccc(C(F)(F)F)c1)Nc1cc(S(=O)(=O)NC2CC2)ccc1-c1ccsc1
[1]
  Potency: inconclusive: 23.5 µM [cytotoxic, single point]
[2]
  Potency: inconclusive: 37.2 µM [cytotoxic, single point]
[8]
  Potency: inconclusive: 27.3 µM [cytotoxic, single point]
[5]
  Potency: inconclusive: 6.85 µM [cytotoxic, partial curve, poor fit]
[4]
  Potency: active: 29.6 µM
[6]
  Potency: inconclusive: 37.2 µM [cytotoxic, single point]

## CC(C)CN(C[C@@H](O)[C@H](Cc1ccccc1)NC(=O)O[C@H]1CO[C@H]2OCC[C@H]21)S(=O)(=O)c1ccc(N)cc1
[1]
  Potency: active: 18.7 µM
[8]
  Potency: active: 3.85 µM

## Cc1cccc(C)c1NC(=O)CN1CCN(CCCC(c2ccc(F)cc2)c2ccc(F)cc2)CC1
[1]
  Potency: inactive
[2]
  Potency: inconclusive: 23.7 µM [cytotoxic, single point]
[5]
  Potency: inconclusive: 1.23 µM [cytotoxic, partial curve, poor fit]

## COc1cccc2c1C(=O)c1c(O)c3c(c(O)c1C2=O)C[C@@](O)(C(C)=O)C[C@@H]3O[C@H]1C[C@H](N)[C@H](O)[C@H](C)O1
[1]
  Potency: active: 0.133 µM
[2]
  Potency: inconclusive: 0.075 µM [cytotoxic, full curve, poor fit]
[3]
  Potency: active: 0.473 µM
[5]
  Potency: active: 0.347 µM
[7]
  Potency: active: 16.8 µM

## Oc1c(Cl)cc(Cl)c2cccnc12
[1]
  Potency: active: 2.66 µM and active: 6.62 µM
[2]
  Potency: active: 5.96 µM and active: 18.7 µM
[8]
  Potency: active: 27.6 µM and active: 30.6 µM
[3]
  Potency: inconclusive: 29.9 µM [cytotoxic, single point] and inconclusive: 37.2 µM [cytotoxic, single point]
[5]
  Potency: active: 12.3 µM and active: 27.3 µM
[6]
  Potency: active: 6.68 µM and active: 11.8 µM

## COc1cccc2c(NCc3ccccc3)nc(-n3c(N)nc4ccccc43)nc12
[1]
  Potency: active: 9.35 µM
[2]
  Potency: active: 9.35 µM
[8]
  Potency: active: 10.9 µM
[4]
  Potency: inconclusive: 11.8 µM [cytotoxic, partial curve, poor fit]
[6]
  Potency: active: 9.35 µM

## COc1ccccc1[C@H](c1cccc2ccccc12)[C@@](C)(C#N)C(=O)N1CCC(c2cccc(C(F)(F)F)c2)CC1
[1]
  Potency: inconclusive: 3.72 µM [cytotoxic, full curve]
[2]
  Potency: inconclusive: 4.69 µM [cytotoxic, partial curve]
[8]
  Potency: inconclusive: 6.11 µM [cytotoxic, full curve]
[3]
  Potency: inconclusive: 3.32 µM [cytotoxic, partial curve, poor fit]
[4]
  Potency: inconclusive: 5.9 µM [cytotoxic, partial curve]
[6]
  Potency: inconclusive: 7.43 µM [cytotoxic, partial curve]

## COc1ccc(C2C(=O)c3ccccc3C2=O)cc1
[9]
  Potency: inactive
[4]
  Potency: inactive

## C[C@H](CCC(=O)O)[C@H]1CCC2C3C[C@H](O)[C@@H]4C[C@H](O)CC[C@]4(C)C3CC[C@@]21C (some centres undefined)
[1]
  Potency: inconclusive: 29.6 µM [cytotoxic, single point]
[2]
  Potency: inactive
[4]
  Potency: inactive
